Results from PubChem BioAssay AID686978 (National Center for Advancing Translational Sciences (NCATS), 2013).
Where “and” joins values, the source holds several entries; their conditions need not be identical. Identical values can stand only once. Among all 420,000 compounds or so, about 64,000 (15%) were called active. The inconclusive results got no clear call from the source; some entries with a clear call stand among them for comparison. Calls follow the shape of the dose curve; as a rule, active = well fitted inhibition curve with a large enough effect; inconclusive = small, poorly fitted or top-dose-only effect; inactive = flat fitted curve, though single readings scatter. Potencies of inconclusive entries are left out as doubtful fits. More than one record can exist for a structure, and the calls need not agree.

assay: qHTS for Inhibitors of human tyrosyl-DNA phosphodiesterase 1 (TDP1): qHTS in cells in absence of CPT; conditions: DT40 Tdp1-/- hTDP1 cells, no CPT, ATP luminescence, 48 h; activity change, negative = growth inhibition: at 46.2 µM (top of the series); also: nearly all actives have a fitted effect of over 55% in size
Summary of the method: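 Luminescent ATP content (CellTiter-Glo) served as the growth readout. Knockout chicken DT40 cells expressing human TDP1 were exposed to compounds without camptothecin for a minimum 48 hr at 37 °C.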
% is scaled to controls: 0 for no effect and ±100 for the full control effect; potency is read from the fitted curve at half-maximal effect; tags tell the direction and shape of the fitted curve.

| SMILES | Potency | activity change, negative = growth inhibition |
| --- | --- | --- |
| Cc1ccc(/C=N/NC(=O)c2cc(-c3cccnc3)nc3ccccc23)cc1 | active: 1.46 µM | – |
| O=[N+]([O-])c1ccccc1CN1CCN(S(=O)(=O)c2ccccc2)CC1 | inconclusive [inhibitor, partial curve] | – |
| COc1cc(/C=C2\SC(N)=NC2=O)ccc1O | active: 4.61 µM | – |
| Cc1ccccc1-c1noc(-c2ccc(NCC3CCCO3)c([N+](=O)[O-])c2)n1 (stereo not given) | active: 2.06 µM | – |
| N#C/C(=C\C=C\c1ccccc1[N+](=O)[O-])C(=O)NCc1ccccc1 | active: 6.51 µM | – |
| CCNC(=O)C1(C)CCCN(Cc2ccccc2-c2ccccc2)C1 (stereo not given) | inconclusive [inhibitor, single point] | – |
| CCc1cc2c(=O)n(CCC(C)C)c(=S)[nH]c2s1 | inconclusive [inhibitor, single point] | – |
| COc1ccc(OC)c(CNCc2ccc3c(c2)OCO3)c1 | inconclusive [inhibitor, partial curve] | – |
| CCOc1ccc(NC(=O)Cn2c(=O)n(CCCC(=O)NCCc3ccc(Cl)cc3)c(=O)c3ccccc32)cc1 | inconclusive [inhibitor, single point] | – |
| Cc1cccc(CNc2cc(-c3cccc(C#N)c3)ncn2)c1 | active: 4.61 µM | – |
| O=C(NCc1ccccc1)C(C1CC1)n1c(CSCCOc2ccccc2)nc2ccccc21 (stereo not given) | active: 16.4 µM | – |
| CN(C)CC(C)(C)CNS(=O)(=O)c1ccc(Cl)c(Cl)c1 | inactive and active: 2.31 µM | – |
| CCOCC(=O)N(CC)Cc1ccccc1 | inconclusive [inhibitor, partial curve] | – |
| CC(C)(c1cc(Cl)c(O)c(CN2CCOCC2)c1)c1cc(Cl)c(O)c(CN2CCOCC2)c1 | inconclusive [inhibitor, partial curve, poor fit] | – |
| Cc1ccc(NC(=O)CN2CCC(NC(=O)Cc3ccccc3)CC2)c(C)c1 | inactive | – |
| CSc1c(C#N)c(N)nc2sc(C(=O)c3ccccc3)c(N)c12 | inactive | – |
| O=C(CCC(=O)c1ccc(F)cc1)NCC1(N2CCCCC2)CCCCC1 | inconclusive [inhibitor, single point] | – |
| O=C(CCl)NC(Cc1ccccc1)C(=O)OCC(=O)c1ccc(-c2ccccc2)cc1 (stereo not given) | inconclusive [inhibitor, single point] | – |
| O=C(OC1CCCCC1=O)c1ccc(F)c(S(=O)(=O)N2CCOCC2)c1 (stereo not given) | inactive | – |
| O=C(CSc1nc(NS(=O)(=O)c2ccccc2)cc(=O)[nH]1)Nc1ccc(F)cc1 | inactive | – |
| CC(C)Nc1nc(-c2ccccc2)nnc1-c1ccccc1 | inconclusive [inhibitor, single point] | – |
| Cc1oc(-c2ccccc2F)nc1CS(=O)(=O)CC(=O)N1CCN(c2ccccc2)CC1 | inconclusive [inhibitor, single point] | – |
| CC(=O)c1cc2c(cc1NC(=O)C1CC=CCC1C(=O)O)OCO2 (stereo not given) | inconclusive [inhibitor, single point] | – |
| COc1ccc(-c2[nH]c(-c3ccc(O)cc3)nc2-c2ccccc2)cc1 | inconclusive [inhibitor, single point] | – |

| SMILES | Potency | activity change, negative = growth inhibition |
| --- | --- | --- |
| CCOC(=O)N1CCN(C(=O)C[C@@H]2C[C@@]3(C(=O)OC)CCCCC=C3N(Cc3ccc4c(c3)OCO4)C2=O)CC1 | inconclusive [inhibitor, single point] | – |
| CCOC(=O)c1cccc(NC(=O)C(C)n2nc(C)c3c(C)n(-c4ccccc4)nc3c2=O)c1 (stereo not given) | inconclusive [inhibitor, single point] | – |
| COc1ccc2c(Sc3ccccc3)c(C(=O)NCCc3ccc(Cl)cc3)[nH]c2c1 | inconclusive [inhibitor, single point] | – |
| O=C1CC(=C(c2ccccc2)c2ccccc2)C(=O)N1CCCCN1CCN(c2cccc(Cl)c2)CC1 | active: 18.4 µM | – |
| CCc1cc2c(NCCN3CCCCC3)ncnc2s1 | inactive | – |
| O=C(NNC(=S)NC1CCCCC1)c1ccccc1O | inconclusive [inhibitor, single point] | – |
| COc1ccc(S(=O)(=O)NC2CCCCC2)cc1C | inactive | – |
| O=C(CN1C(=O)COc2ccc(S(=O)(=O)N3CCCC3)cc21)N1CCN(c2ccccc2)CC1 | inconclusive [inhibitor, partial curve, poor fit] | – |
| CSCCC(/C(O)=C(\C#N)c1nc2ccccc2[nH]1)N1C(=O)c2ccccc2C1=O (stereo not given) | inconclusive [inhibitor, single point] | – |
| CCC(=NC1CC(C)(C)NC(C)(C)C1)C1=C(O)CC(C)(C)CC1=O | inactive | – |
| O=S(=O)(Nc1cccnc1)c1ccc(Br)c2ccccc12 | inactive | – |
| O=C1CC(c2ccccc2)Cc2nc(N3CCc4ccccc4C3)ncc21 (stereo not given) | inconclusive [inhibitor, single point] | – |
| Cc1c(Cl)ccc2c(C(O)CBr)cc(-c3ccccc3)nc12 (stereo not given) | active: 16.4 µM | – |
| CCOC(=O)C1CCCN(CC(=O)N2CCCc3c2c(=O)oc2ccc(OCc4ccccc4)cc32)C1 (stereo not given) | – | inconclusive: -30.8% [inhibitor] |
| COc1cc(OC)cc(-n2nnnc2SCC(=O)N2CCCc3ccccc32)c1 | inconclusive [inhibitor, single point] | – |
| COc1ccc(CN2C(=O)c3ccccc3C2=O)cc1C(=O)Nc1ccc(C)cc1C | inconclusive [inhibitor, single point] | – |
| O=C(c1ccccc1)C(CCC(CN1CCOCC1)C(=O)c1ccccc1)CN1CCOCC1 (stereo not given) | active: 1.46 µM | – |
| CCOC(=O)N1CCN(C(=O)CCC(=O)c2ccc(OCC)cc2)CC1 | inactive | – |
| CCc1ccc(NC(=O)c2sc3ncnc(N(C)C4CCCCC4)c3c2C)cc1 | active: 20.6 µM | – |
| Cc1ccc(C)c(S(=O)(=O)N2CCCC2CNC(=O)C(=O)NCCc2ccccc2)c1 (stereo not given) | inconclusive [inhibitor, single point] | – |
| COc1ccc(S(=O)(=O)Nc2cc(C)on2)cc1 | inactive | – |
| Cc1ccc(C(=O)C2OC(=O)C(C)(C)C(=O)C2(C)C)cc1 (stereo not given) | inconclusive [inhibitor, partial curve] | – |
| Clc1ccc(Cc2ccccn2)cc1 | inactive | – |
| CCn1c(-c2cc(Br)cc(OC)c2O)nc2cc(S(=O)(=O)N(C)C)ccc21 | inconclusive [inhibitor, single point] | – |

| SMILES | Potency | activity change, negative = growth inhibition |
| --- | --- | --- |
| Cc1ccc(S(=O)(=O)N2CCCCC2)cc1NC(=O)CCOc1ccccc1 | inconclusive [inhibitor, single point] | – |
| CCC(=O)c1ccc(OCc2ccc(C(=O)OC)cc2)cc1 | inconclusive [inhibitor, partial curve] | – |
| COC(=O)N1CCCCC1c1cc(C(=O)Nc2cccc3c2CCCC3)no1 (stereo not given) | inconclusive [inhibitor, full curve, poor fit] | – |
| Cc1cc(Cl)c(S(N)(=O)=O)cc1OCC(=O)NC1CCCCC1 | inactive | – |
| CC1CC2(C)Oc3ccccc3C3OCC1(COC(=O)Nc1ccccc1)C(C)C32 (stereo not given) | inconclusive [inhibitor, partial curve] | – |
| O=C(NCc1ccc2c(c1)CCN2C(=O)c1ccccc1)c1cc2ccccc2[nH]1 | inconclusive [inhibitor, single point] | – |
| Cc1ccc(S(=O)(=O)NC(=O)C2(C)CCN2C(=O)C2CC2)cc1 (stereo not given) | inactive | – |
| S=C(Nc1ccc(Cl)cc1)NC1CC2CCCC(C1)N2C1CC1 (stereo not given) | inconclusive [inhibitor, single point] | – |
| O=C(NC1CCCCC1)c1cnn2c1NC(=C1CC1)C=C2C(F)F | inconclusive [inhibitor, single point] | – |
| CN(c1ccccc1)c1ncnc2c1ncn2C | inactive | – |
| O=C(Cn1cc(COc2c(F)c(F)c(Br)c(F)c2F)nn1)c1ccc(O)cc1 | inconclusive [inhibitor, single point] | – |
| CC(=O)C1=C(c2ccc(C)cc2)N(C(C)=O)n2c(nnc2C2CCCCC2)S1 | inconclusive [inhibitor, single point] | – |
| COc1cccc(OCC(=O)NC2CCCCCC2)c1 | – | inconclusive: -33.5% [inhibitor] |
| COc1ccc(CNC(=O)Nc2ccc3c(c2)N(C)C(=O)c2ccccc2S3)cc1 | active: 20.6 µM | – |
| CN(CCc1ccccc1)C(=O)c1cccc(NC(=O)Cc2cccc(NC(=O)C3CCN(C(=O)C4CCC4)CC3)c2)c1 | active: 14.6 µM | – |
| Cc1ccc2nc(SC(C)C(=O)Nc3cccc([N+](=O)[O-])c3)[nH]c2c1 (stereo not given) | inconclusive [inhibitor, partial curve, poor fit] | – |
| C=CC1=C(C)C2=NC1=CC1=NC(=CC3=NC(=CC4=NC(=C2)C(C)=C4CCC(=O)O)C(CCC(=O)O)=C3C)C(C=C)=C1C.[Zn] | inconclusive [inhibitor, single point] | – |
| COc1ccc(OCC(=O)NCCc2c[nH]c3ccccc23)cc1 | inconclusive [inhibitor, single point] | – |
| COc1cccc(CN2C(=O)c3ccccc3Sc3ccc(C(=O)N(C)Cc4ccccc4)cc32)c1 | active: 18.4 µM | – |
| COc1ccc(-c2nnc(SCc3cc(=O)c4cc(C)cc(C)c4[nH]3)n2C)cc1 | active: 18.4 µM | – |
| COc1ccccc1NC(=O)c1cc2ccc3cccnc3c2[nH]1 | active: 25.9 µM | – |
| Cn1c(=O)c(-c2ccccc2)nc2cnc(Nc3ccccc3)nc21 | inactive | – |
